PubChem BioAssay AID1508623 (National Center for Advancing Translational Sciences (NCATS), 2021)
The campaign covered roughly 48,000 compounds. About 450 (0.94%) were called active. About 19% were inconclusive and are not listed. The call rests on the fitted dose curve; in most records, active means well fitted inhibition curve with a large enough effect; inconclusive means small, poorly fitted or top-dose-only effect; inactive means no such curve, though single readings can be large or run the other way. The list shows a part of the results.

assay: Primary qHTS for Identification of Small Molecule Inhibitors of Huntingtin Promoter Activity; conditions: HEK293 HTT promoter firefly luciferase reporter (activity 0% = vehicle and -100% = no light), 24 h; series mostly up to 57.5 µM; activity change, negative = inhibition: at the top concentration; further: nearly all actives have a fitted effect of over 50% in size
Method in brief: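 Firefly luciferase readout (Dual-Glo, 10 min RT) after 24 h, 37 °C compound exposure (final up to 57.5 uM) of HEK293 reporter cells cultured 24 h beforehand; PTC124 at 50 uM final as control inhibitor; activity scaled vehicle 0%, zero RLU -100%.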
Potency means the concentration at half of the fitted maximal effect.

Row | SMILES | activity change, negative = inhibition | Potency
1 | CCN(CC)C(=O)CSc1nc2cc3c(cc2c(=O)n1CCCC(=O)NCc1ccc2c(c1)OCO2)OCO3 | inactive: -18.7% | 
2 | O=C(Cn1nc(N2CCN(c3ccccc3)CC2)ccc1=O)NCc1ccccc1F | inactive: 0% | 
3 | Cc1cccc(C(=O)Nc2ccccc2OCc2cc(=O)n3ccccc3n2)c1 | inactive: 1.67% | 
4 | CCOc1ccc(NC(=O)c2cn(C3CCCCC3)c(=O)c3c2c2ccccc2n3C)cc1 | inactive: -8.84% | 
5 | Cc1ccc(-c2nnc(SCC(=O)NC(C)(C)C)nc2-c2ccc(C)cc2)cc1 | inactive: -13.8% | 
6 | Cn1c(=O)c2c(nc(NCCc3ccccc3)n2Cc2ccccc2Br)n(C)c1=O | inactive: -5.89% | 
7 | CCOc1ccc(C(=O)N(Cc2nc(-c3cccc(C)c3)no2)C(C)C)cc1 | inactive: -9.55% | 
8 | COc1ccc(-c2nc(CN3CCC(C(=O)NCc4ccc(C)cc4)CC3)c(C)o2)cc1OC | inactive: -29.6% | 
9 | CC(=O)OCC(=O)[C@@]1(O)[C@H](OC(C)=O)C[C@H]2[C@@H]3CCC4=CC(=O)C=C[C@]4(C)[C@@]3(F)[C@@H](O)C[C@@]21C | inactive: -0.87% | 
10 | CC(C)(C)c1cc(C(=O)O)c(NC(=O)Nc2ccc3[nH]ncc3c2)s1 | inactive: -4.19% | 
11 | CCOc1ccc(CNC(=O)CCCn2c(=O)c3cccn3c3ccccc32)cc1 | inactive: 3.03% | 
12 | CCOc1ccccc1Nc1nc2ccccc2nc1NS(=O)(=O)c1ccc(Cl)cc1 | inactive: -10.9% | 
13 | COc1ccc(C(=O)n2nc(-c3cccnc3)nc2NCc2ccccc2)cc1OC | inactive: -6.49% | 
14 | COc1ccccc1CNc1ncnc2onc(-c3ccc(F)cc3)c12 | inactive: -18% | 
15 | CC(=O)N1CCCc2cc(S(=O)(=O)N3CCC(C(=O)Nc4c(C)cccc4C)CC3)ccc21 |  | active: 20 µM
16 | CCc1nnc(SCc2cccc(Cl)c2)c2cc3sccc3n12 | inactive: -25.1% | 
17 | Cc1cc(C)c(NC(=O)CSc2nc3nccnc3c(=O)n2CCc2c[nH]c3ccccc23)c(C)c1 | inactive: -11.5% | 
18 | COc1ccc2c(CNC3CCCCCC3)c(C(=O)O)n(Cc3ccc(C)cc3)c2c1 | inactive: -31.7% | 
19 | COc1ccc(CNC(=O)CN2C(=O)COc3ccc(S(=O)(=O)N4CCCCC4)cc32)cc1 | inactive: -3.18% | 
20 | Cc1cc(F)ccc1NC(=O)Cn1nc(N2CCN(c3ccccc3)CC2)ccc1=O | inactive: -18% | 

Row | SMILES | activity change, negative = inhibition | Potency
21 | Cc1ccc(Cn2c(C)c3cnn(CC(=O)O)c(=O)c3c2C)cc1 | inactive: -18.2% | 
22 | O=C(Cn1cc(SCc2ccc(F)cc2)c2ccccc21)N1CCCCC1 | inactive: 2.25% | 
23 | CCOc1cc(S(=O)(=O)NCCc2c(C)[nH]c3ccc(C)cc23)ccc1F | inactive: -4.62% | 
24 | COc1ccc2c(c1)c(CC(=O)Nc1cc(C)cc(C)c1)c(C)n2C(=O)c1ccc(Cl)cc1 | inactive: 0.224% | 
25 | O=C(NCc1ccccc1)c1cnc2sc(N3CCCC3)nn2c1=O | inactive: 6.45% | 
26 | COc1ccc(C)cc1NC(=O)c1sc2nc(-c3ccc(F)cc3)cn2c1C | inactive: 0.743% | 
27 | O=C1CCCC2=C1C(c1[nH]ncc1Cl)N=C(Nc1nc3ccccc3o1)N2 (stereo not given) | inactive: 2.73% | 
28 | Cc1cc(C)c2oc(C(=O)Nc3ccc(S(=O)(=O)Nc4ncccn4)cc3)cc(=O)c2c1 | inactive: 6.78% | 
29 | O=C(CCCn1ncn2c(cc3occc32)c1=O)NCc1ccccc1F | inactive: -9.32% | 
30 | Cc1cc2c(cc1S(=O)(=O)C(C)CC(=O)NC1CCC(C)CC1)OCC(=O)N2 (stereo not given) | inactive: 0% | 
31 | O=C(Nc1ccccc1C(F)(F)F)c1cc2nc(-c3ccccc3)cc(-c3ccccc3)n2n1 | inactive: -3.73% | 
32 | COc1ccccc1NC(=O)c1sc(-c2ccc(Cl)cc2)cc1N | inactive: -11.9% | 
33 | CCc1ccc2c(c1)NC(c1ccc(F)cc1)=NC(c1ccncc1)=N2 | inactive: -9.34% | 
34 | COCCc1nn2c(=O)cc(COC(=O)c3ccccc3C)nc2s1 | inactive: 37.9% | 
35 | Cc1ccc(C)c(N2CCN(C(=O)c3ccc4c(=O)n(CCc5ccccc5)c(=O)[nH]c4c3)CC2)c1 | inactive: -2.67% | 
36 | O=C(Nc1cc(-c2ccc(Cl)cc2)no1)c1ccc(F)cc1 | inactive: 15% | 
37 | CCCSCCCNC(=O)CN1C(=O)COc2ccc(S(=O)(=O)N3CCCC3)cc21 | inactive: -14% | 
38 | COc1cc(NC(=O)C2=CC(c3ccco3)=NS(=O)(=O)N2C)cc(OC)c1OC | inactive: -20.3% | 
39 | CCCCn1c(=O)c2oc3ccccc3c2n(Cc2ccccc2C)c1=O | inactive: 4.34% | 
40 | O=C(COc1ccc(F)cc1)Nc1ccccc1C(=O)OCc1cc(=O)n2ccsc2n1 | inactive: -1.22% | 

Row | SMILES | activity change, negative = inhibition | Potency
41 | Cc1nc(-c2ccccc2)sc1CCNC(=O)C(=O)Nc1ccc(F)c(Cl)c1 | inactive: -13.5% | 
42 | NC(=O)c1ccccc1NC(=O)CN1c2ccccc2S(=O)(=O)c2ccccc21 | inactive: 9.93% | 
43 | COc1cccc(N2CCN(C(=O)Cn3nc(C)n4c(cc5c(OC)cccc54)c3=O)CC2)c1 | inactive: 2.3% | 
44 | COC(=O)c1c(NC(=O)COc2ccc(Cl)cc2)sc(C)c1C | inactive: -1.75% | 
45 | COCc1cc(C)nc2c1C(=O)NC(c1ccc(Br)cc1)N2Cc1ccccc1 (stereo not given) | inactive: -14.5% | 
46 | COc1cc(Cl)c(C)cc1NC(=O)Cn1c2ncccc2c(=O)n1-c1ccccc1 | inactive: 0.88% | 
47 | CCc1ccc(-n2nnc(-c3nc(-c4ccc(C)cc4)no3)c2N)cc1 | inactive: 1.72% | 
48 | COc1ccc(Cl)cc1C(=O)NCc1nnnn1-c1ccccc1 | inactive: 6.04% | 
49 | O=C(Nc1sc2c(c1C(=O)NCc1ccccc1)CCCC2)c1cc(=O)c2ccccc2o1 | inactive: -14.2% | 
50 | COc1nnc(-c2ccc(N3CCCCC3)c(NC(=O)c3ccccc3Cl)c2)c2ccccc12 |  | active: 11.2 µM
51 | O=C(NCc1ccc(Cl)cc1)C1CCN(c2ncnc3c2nc2n3CCCCC2)CC1 | inactive: 1.62% | 
52 | CCOc1ccccc1C(=O)NCC(c1cccs1)S(=O)(=O)c1ccc(F)c(C)c1 (stereo not given) | inactive: -17.8% | 
53 | CC1CCN(C(=O)Cn2cc(SCC(=O)Nc3ccccc3)c3ccccc32)CC1 | inactive: 0.75% | 
54 | COc1cccc(-c2nc(SCC(=O)NCc3ccco3)c3c(=O)n(C)c(=O)n(C)c3n2)c1 | inactive: 14.7% | 
55 | CCOC(=O)c1noc2ncnc(N3CCN(c4cccc(C(F)(F)F)c4)CC3)c12 | inactive: -23.1% | 
56 | COc1ccc(Cn2c(=O)n(-c3ccc(OC)cc3)c(=O)c3c2c2cc(OC)ccc2n3C)cc1 | inactive: -13.2% | 
57 | COc1ccc(-c2cc(C)no2)cc1S(=O)(=O)NCc1ccco1 | inactive: -18.8% | 
58 | CCOC(=O)c1c(-c2ccc(C)cc2)csc1NC(=O)c1cc(=O)c2cc(C)cc(C)c2o1 | inactive: 0.0274% | 
59 | COc1ccc(-n2c(SCc3ccccc3F)nc3c([nH]c4ccccc43)c2=O)cc1OC | inactive: -27.6% | 
60 | COc1cc(NC(=O)c2c3c(nc4ccccc24)C(=O)N(C2CCCCC2)C3)cc(OC)c1 | inactive: -8.67% | 
